86 sequences from the supplement of paper PMC3334620 can be followed below.

Over roughly 33,000 sequences, “E-score (-0.5 to 0.5)” has its median near -0.035; the highest 2% begin near 0.34. This is one part of the list.

The test concerns the target T1, Mot3 (UniProt P54785).
T1 sequence: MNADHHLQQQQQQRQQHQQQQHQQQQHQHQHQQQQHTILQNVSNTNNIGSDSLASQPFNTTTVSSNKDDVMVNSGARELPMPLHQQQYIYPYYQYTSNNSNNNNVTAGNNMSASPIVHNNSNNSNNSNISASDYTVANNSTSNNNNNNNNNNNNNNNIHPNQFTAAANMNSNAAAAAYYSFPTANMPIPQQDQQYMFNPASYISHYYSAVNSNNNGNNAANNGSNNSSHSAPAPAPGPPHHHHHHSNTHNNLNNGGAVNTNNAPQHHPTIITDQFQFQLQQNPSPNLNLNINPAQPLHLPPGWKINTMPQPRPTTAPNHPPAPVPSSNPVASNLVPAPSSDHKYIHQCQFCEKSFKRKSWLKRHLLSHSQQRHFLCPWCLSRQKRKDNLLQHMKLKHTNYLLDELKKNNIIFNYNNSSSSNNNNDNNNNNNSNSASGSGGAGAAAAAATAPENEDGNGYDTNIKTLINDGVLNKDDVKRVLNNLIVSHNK
In words: PBM E-score (8-mer binding enrichment) (E-score (-0.5 to 0.5)); higher = stronger / more preferred TF binding; most listed sequences are background and not binding sites. To be noted: protein concentration: 200 nM; construct: GST-full length. The essentials: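 For each ungapped eight-base word taken together with its reverse complement, the Universal PBM Analysis Suite assigned an E-score. Binding data came from GST-tagged yeast transcription factors, applied at about 100-200 nM, on universal all-10-mer Agilent arrays made double-stranded by primer extension. Fluorescent anti-GST marked bound protein, and scans were normalised with masliner.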
Take GGCGTTAC: the “PBM E-score” value came to 0.0882.

As for AGCGGAGG, the “PBM E-score” value came out at 0.0481.

Consider CTTGGCTC, for which the “PBM E-score” value was -0.253.

Take AAAGCTCT: the “PBM E-score” value is -0.185.

As to AACCTATC, the “PBM E-score” value is -0.03.

For the sequence AAGGTCCA, the “PBM E-score” value was -0.138.

GTGTTGAA: the “PBM E-score” value came out at 0.317.

Turning to ATTGAATG, the “PBM E-score” value is -0.0786.

Consider GACCGATC, for which the “PBM E-score” value was -0.226.

CGCAGACG: the “PBM E-score” value was -0.094.

Consider CAAGTACG, for which the “PBM E-score” value was found to be 0.0271.

Turning to ATCCTGCA, the “PBM E-score” value stood at 0.0998.

On to AGTCCTCA, for which the “PBM E-score” value was -0.231.

Take CATAGGTC: the “PBM E-score” value is -0.0819.

As for GGGCCCCA, the “PBM E-score” value is -0.3.

As to AGAAGCCC, the “PBM E-score” value is -0.158.

Consider CGCTTAAC, for which the “PBM E-score” value is 0.133.

On to CAGACGAG, for which the “PBM E-score” value was -0.27.

As for ATTCGCGC, the “PBM E-score” value amounted to 0.085.

Consider CCGTCGTC, for which the “PBM E-score” value was -0.322.

For the sequence GGGCCACA, the “PBM E-score” value is -0.367.

CCGCGCAG: the “PBM E-score” value is -0.216.

As to CCGTATCG, the “PBM E-score” value is -0.201.

Take CGCTATAA: the “PBM E-score” value is -0.0574.

As to TCGGGTCA, the “PBM E-score” value is -0.148.

Turning to AGCCAGTG, the “PBM E-score” value is -0.232.

For AAGCGTGT, the “PBM E-score” value is 0.297.

For the sequence ATCCGCCG, the “PBM E-score” value is 0.013.

Consider AGTTGTTA, for which the “PBM E-score” value was 0.122.

Consider AAAAGTGG, for which the “PBM E-score” value is -0.0411.

In the case of ACAATGTC, the “PBM E-score” value came to 0.047.

Regarding CCCTGCGG, the “PBM E-score” value is -0.171.

For AACACTCT, the “PBM E-score” value was determined as 0.121.

As for ATTACTCA, the “PBM E-score” value came out at 0.165.

On to ACTATGCC, for which the “PBM E-score” value was found to be 0.0451.

As to AGTACTAT, the “PBM E-score” value is 0.0238.

Regarding CCAAATGC, the “PBM E-score” value is -0.141.

CAGTCAAA: the “PBM E-score” value is -0.043.

Regarding TATGGCGA, the “PBM E-score” value was -0.321.

For the sequence CCCGATGA, the “PBM E-score” value is -0.0598.

With ATAGAGAA, the “PBM E-score” value is -0.011.

For the sequence CAATGCAG, the “PBM E-score” value was 0.0208.

AGATAAGA: the “PBM E-score” value was 0.00264.

On to AGCGCAGC, for which the “PBM E-score” value was -0.26.

On to CTTACAGA, for which the “PBM E-score” value was -0.041.

For the sequence CTAATCGA, the “PBM E-score” value is -0.0302.

On to AATACCGA, for which the “PBM E-score” value is -0.0843.

As to ACTCTGAA, the “PBM E-score” value is -0.0422.

CGTGACTA: the “PBM E-score” value came to 0.25.

For CGAGACGC, the “PBM E-score” value is -0.0947.

Regarding AATACATT, the “PBM E-score” value turned out to be 0.235.

Regarding AGTTAACC, the “PBM E-score” value was 0.117.

AGGAGCAT: the “PBM E-score” value amounted to 0.178.

In the case of CACTTGAA, the “PBM E-score” value was found to be 0.105.

Turning to AAACGCTT, the “PBM E-score” value was determined as 0.00673.

For TCTTAACA, the “PBM E-score” value amounted to 0.346.

Regarding CGCATAGA, the “PBM E-score” value was -0.00099.

Take ACTCCAAG: the “PBM E-score” value was -0.0115.

On to ACGGTAAA, for which the “PBM E-score” value turned out to be 0.0714.

Take TAAAGTGA: the “PBM E-score” value stood at 0.0617.

Turning to GCCCTAGC, the “PBM E-score” value was -0.184.

Consider CATATTTA, for which the “PBM E-score” value came to 0.178.

As to AAGATAAT, the “PBM E-score” value was 0.116.

Consider CCGCGGTC, for which the “PBM E-score” value was -0.2.

GCGGTCAA: the “PBM E-score” value was -0.0964.

As for GAAGTGCA, the “PBM E-score” value was -0.127.

As to AGTGGGGC, the “PBM E-score” value is -0.303.

Consider TTTGCAAA, for which the “PBM E-score” value was -0.00928.

Consider GTCTAGCA, for which the “PBM E-score” value was -0.0517.

As to TCACGTCA, the “PBM E-score” value is -0.0046.

As for CCCTCGAG, the “PBM E-score” value is -0.156.

With AGTTGCGA, the “PBM E-score” value is -0.0454.

Turning to ACCTGCAG, the “PBM E-score” value was 0.174.

Take AACTGTCA: the “PBM E-score” value is -0.128.

Regarding CATCTCGC, the “PBM E-score” value was -0.229.

As for AGCTAGTC, the “PBM E-score” value is -0.156.

For AAAAACGC, the “PBM E-score” value was found to be 0.18.

For the sequence AGATGACG, the “PBM E-score” value was determined as 0.0401.

On to AGAGCGAC, for which the “PBM E-score” value was -0.22.

Consider CCTATGAG, for which the “PBM E-score” value is -0.0641.

As to AAGACGTC, the “PBM E-score” value is -0.264.

Turning to GAGTTGCC, the “PBM E-score” value amounted to 0.161.

On to ACAATGCG, for which the “PBM E-score” value came to 0.0638.

As for ACAGTGTA, the “PBM E-score” value was 0.161.

With ACCCTTGA, the “PBM E-score” value is -0.314.

Regarding ACGTTAAG, the “PBM E-score” value was found to be 0.173.
